From PMC4336329 (PLoS ONE, 2015)
The whole screen tested about 310,000 compounds, of which about 2,200 (0.71%) showed an effect of 50% or more. The effect is printed as a negative number. Some of the results follow.

Molecular target: human ether-à-go-go-related gene (hERG) potassium channel (human, UniProt Q12809)
Experiment: primary screen, population patch clamp on CHO cells stably expressing hERG

human ether-à-go-go-related gene (hERG) potassium channel, sequence (Q12809 whole entry, looked up): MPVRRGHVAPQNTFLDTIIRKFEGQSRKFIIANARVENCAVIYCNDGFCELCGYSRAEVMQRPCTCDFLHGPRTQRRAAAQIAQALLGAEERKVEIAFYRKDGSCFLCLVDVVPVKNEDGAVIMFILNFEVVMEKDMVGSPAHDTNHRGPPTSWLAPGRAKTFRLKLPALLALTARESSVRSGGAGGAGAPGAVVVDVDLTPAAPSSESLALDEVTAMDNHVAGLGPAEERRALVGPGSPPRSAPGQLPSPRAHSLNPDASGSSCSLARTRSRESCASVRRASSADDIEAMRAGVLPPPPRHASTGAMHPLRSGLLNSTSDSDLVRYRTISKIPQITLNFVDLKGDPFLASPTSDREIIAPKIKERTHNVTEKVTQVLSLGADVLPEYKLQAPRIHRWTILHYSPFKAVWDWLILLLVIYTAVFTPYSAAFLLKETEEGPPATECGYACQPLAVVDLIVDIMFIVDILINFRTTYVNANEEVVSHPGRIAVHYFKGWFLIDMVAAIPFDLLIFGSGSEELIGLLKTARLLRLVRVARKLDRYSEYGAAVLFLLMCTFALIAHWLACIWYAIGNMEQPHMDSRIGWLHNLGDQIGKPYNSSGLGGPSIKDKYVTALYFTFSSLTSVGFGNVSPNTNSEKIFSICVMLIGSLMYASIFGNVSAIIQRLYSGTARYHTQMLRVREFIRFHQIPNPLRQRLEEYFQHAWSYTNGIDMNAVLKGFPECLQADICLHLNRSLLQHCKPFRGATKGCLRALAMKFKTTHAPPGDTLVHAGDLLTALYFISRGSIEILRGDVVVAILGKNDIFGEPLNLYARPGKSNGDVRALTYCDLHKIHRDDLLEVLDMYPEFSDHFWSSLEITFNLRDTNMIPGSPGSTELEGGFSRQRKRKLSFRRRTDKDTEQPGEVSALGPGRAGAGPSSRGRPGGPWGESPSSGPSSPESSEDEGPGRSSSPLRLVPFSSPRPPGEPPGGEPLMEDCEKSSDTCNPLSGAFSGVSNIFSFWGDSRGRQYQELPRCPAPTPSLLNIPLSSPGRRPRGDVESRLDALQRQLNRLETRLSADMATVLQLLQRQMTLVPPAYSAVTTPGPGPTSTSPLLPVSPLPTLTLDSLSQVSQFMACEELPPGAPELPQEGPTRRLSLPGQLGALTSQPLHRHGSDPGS

Point of comparison: `Cc1nc2ccccc2n1CC(=O)NC1CCCC1`, “hERG current change (%, negative = inhibition) at 1uM” value 16.9%. Against it:
- Cc1ccccc1CSCC(=O)c1c(N)n(C)c(=O)n(C)c1=O — lower, 0.719%
- CCN(CC)C(=O)C[n+]1cccc(C(N)=O)c1 — lower, 8.47%
- CCC(C)(C)NC(=O)CN(C(=O)CNS(=O)(=O)c1ccccc1)c1ccc2c(c1)OCCO2 — lower, 12.7%
- COc1cccc(COc2ccc3c(C)c(Cc4ccccc4)c(=O)oc3c2)c1 — lower, 8.92%
- Cc1c(C(=O)N/N=C/c2ccccc2)sc(=S)n1C — lower, 11.2%
- COc1ccc(-n2cc(-c3ccc(Br)cc3)[nH]c2=S)cc1 — lower, 14%
- CCn1c(SCC(=O)NCC2CCCO2)nc2c(c1=O)SCC2 (centres unmarked) — lower, 14%
- NC(=O)CCN(Cc1ccccc1)S(=O)(=O)c1ccccc1 — lower, -4.85%
- CC1CCCCC1NC(=O)CCc1nc2sc3c(c2c(=O)[nH]1)CCCC3 (centres unmarked) — lower, 0.979%
- CC/C(=N\NC(=O)c1c[nH]c2ccccc12)c1cccs1 — lower, 9.67%
- CC(C)(C)c1ccc(-c2nn(CCC#N)cc2/C=N/O)cc1 — lower, -3.26%
- COc1ccc(NC(=O)c2ccc(OCC3CCCO3)cc2)cc1OC (centres unmarked) — lower, 9.78%
- Cc1ccc(NC(=O)CSc2ccc(-c3ccccn3)nn2)cc1 — lower, 6.1%
- N/C(=N/S(=O)(=O)c1ccccc1)c1cccc([N+](=O)[O-])c1 — lower, 4.16%
- CCc1ccc(NC(=O)C2CCCN(S(=O)(=O)c3c(C)[nH]c(=O)[nH]c3=O)C2)cc1 (centres unmarked) — lower, 13.7%
- N#Cc1cc2c(nc1SCC(=O)O)CCCCC2 — lower, 8.54%
- O=C(CN1C(=O)NC2(CCCc3ccccc32)C1=O)N1CCCCC1 (centres unmarked) — lower, 15.7%
- COc1cc(OC)cc(C(=O)Nc2ccc(S(=O)(=O)Nc3cnc4ccccc4n3)cc2)c1 — lower, 12.9%
- CCOC(=O)N1CCN(C(=O)c2cccn3c(=O)c4c5c(sc4nc23)CCCC5)CC1 — lower, -8.93%
- OCC1(Cc2ccccc2)CCCN(Cc2ccn[nH]2)C1 (centres unmarked) — lower, 0.885%
- CCN(CC)S(=O)(=O)c1ccc(C(=O)OCC(=O)NCc2ccco2)cc1 — lower, -0.0945%
- CN1CCC2(CC1)CC(NC=O)c1ccccc1O2 (centres unmarked) — higher, 19.3%
- CN1C2CCC1CC(OC(=O)c1ccc(Cl)cc1)C2.Cl (centres unmarked) — lower, -9.75%
- C[C@H](NC(=O)[C@H]1N2C(=O)c3ccccc3C2SC1(C)C)C(=O)NCc1ccncc1 (some centres unmarked) — higher, 27.1%
- COC(=O)c1cnn(-c2ccccc2)c1C(OC)OC — lower, 15.7%
- CCOc1nnc(C)c2c(C)n(-c3cccc(OC)c3)nc12 — lower, 12.7%
- O=C(N/N=C/c1cccnc1)c1cc(-c2cccs2)nc2ccccc12 — lower, 7.79%
- CCO[C@H]1OC(C(=O)N2CCN(C)CC2)=C[C@@H](c2ccc(C(F)(F)F)cc2)[C@@H]1CCCO — lower, 6.07%
- COC(=O)c1ccc(C(=O)N(CCN(C)C)c2nc3c(Cl)cccc3s2)cc1.Cl — lower, 3.52%
- O=c1[nH]c(CN(CCc2ccccc2)S(=O)(=O)c2ccc(Cl)cc2)nc2ccccc12 — lower, 6.8%
- COc1cc(/C(O)=C(\C#N)c2nc3ccccc3[nH]2)cc(OC)c1OC — lower, 15.7%
- Cc1cccc(N(C)S(=O)(=O)c2ccc3[nH]cc(C(=O)N4CCOCC4)c(=O)c3c2)c1 — lower, 9.44%
- O=C(Cn1c(=O)oc2ccccc21)Nc1ccc(Cl)cc1Cl — lower, 12.7%
- COc1ccc(C2NC(=O)NC(C)=C2C(=O)OCc2ccccc2)cc1 (centres unmarked) — lower, 9.73%
- CCSc1nnc(NC(=O)COc2ccccc2)s1 — lower, 7.91%
- N#CC1(c2ccccc2)CCN(C2CC(=O)N(c3cccc(F)c3)C2=O)CC1 (centres unmarked) — lower, 12.4%
- CCOc1cc(NC(=O)c2ccco2)c(OCC)cc1NC(=O)Cc1ccc(OC)c(OC)c1 — lower, -0.812%
- CCNC(=S)NNC(=O)c1ccc(OC(F)F)cc1 — lower, 11.7%
- CC(=O)Oc1ccc(C2C3=C(CC(C)(C)CC3=O)Nc3cc4c(cc32)OCCO4)cc1 (centres unmarked) — lower, 6.71%
- Cc1ccc(C)c(S(=O)(=O)N/N=C/c2ccc(F)cc2)c1 — lower, 3.02%
- O=C(CSC(=S)N1CCOCC1)c1ccccc1 — lower, 6.91%
- C=CC[C@@H]1Cc2c(Br)ccc(Br)c2[C@@H](CC=C)N1.Cl — lower, 9.15%
- CC1=C(C)NC(=S)SC1 — lower, 12.6%
